# The other results are listed elsewhere or left out.
# B1: Surfactant Protein D (Human); Neck + Carbohydrate Recognition Domain (NCRD) (Homo sapiens) (protein)
# chain: MLLFLLSALVLLTQPLGYLEAEMKTYSHRTMPSACTLVMCSSVESGLPGRDRDGREGPRGEKGDPGLPGAAGQAGMPGQAGPVGPKGDNGSVGEPGPKGDTGPSGPPGPPGVPGPAGREGALGKQGNIGPQGKPGPKGEAGPKGEVGAPGMQGSAGARGLAGPKGERGVPGERGVPGNTGAAGSAGAMGPQGSPGARGPPGLKGDKGIPGDKGAKGESGLPDVASLRQQVEALQGQVQHLQAAFSQYKKVELFPNGQSVGEKIFKTAQFVKPFTEAQLLCTQAGGQLASPRSAAENAALQQLVVAKNEAAFLSMTDSKTEGKFTYPTGESLVYSNWAPGEPNDDGGSEDCVEIFTNGKWNDAACGEKRLVVCEF
# Tests used:
# Test in all cases: glycan array binding signal (z-score within array); higher = stronger binding
# Conditions in all cases: glycan notation: IUPAC condensed, linker removed; mutation: R343A
# [1] = molecular target: GlcNAc(b1-3)[GlcNAc(b1-6)]GalNAc
# Method in brief: (§1)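 The binding signal is a Z-score computed within each array and averaged over linkers. Arrays of the same protein sequence at different concentrations or buffers were also averaged together. Data originate from 3228 arrays in the Consortium for Functional Glycomics database, kept only where the protein sequence was available.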
# [2] = molecular target: GlcNAc(b1-4)Gal(b1-4)GlcNAc
# Method in brief: as §1
# [3] = molecular target: GlcNAc(b1-4)GlcNAc
# Method in brief: as §1
# [4] = molecular target: GlcNAc(b1-4)GlcNAc(b1-4)GlcNAc
# Method in brief: as §1
# [5] = molecular target: GlcNAc(b1-4)GlcNAc(b1-4)GlcNAc(b1-4)GlcNAc(b1-4)GlcNAc
# Method in brief: as §1
# [6] = molecular target: GlcNAc(b1-4)GlcNAc(b1-4)GlcNAc(b1-4)GlcNAc(b1-4)GlcNAc(b1-4)GlcNAc
# Method in brief: as §1
# [7] = molecular target: GlcNAc(b1-4)[GlcNAc(b1-6)]GalNAc
# Method in brief: as §1
# [8] = molecular target: GlcNAc(b1-6)Gal(b1-4)GlcNAc
# Method in brief: as §1
# [9] = molecular target: GlcNAc(b1-6)GalNAc
# Method in brief: as §1
# [10] = molecular target: GlcNAc3Prop(b1-4)GlcNAc
# Method in brief: as §1
# [11] = molecular target: Kdn(a2-3)Gal(b1-3)GlcNAc
# Method in brief: as §1
# [12] = molecular target: Kdn(a2-3)Gal(b1-4)GlcNAc
# Method in brief: as §1
# [13] = molecular target: Man(a1-2)Man(a1-2)Man(a1-3)Man
# Method in brief: as §1
# [14] = molecular target: Man(a1-2)Man(a1-2)Man(a1-6)[Man(a1-3)]Man
# Method in brief: as §1
# [15] = molecular target: Man(a1-2)Man(a1-3)Man
# Method in brief: as §1
# [16] = molecular target: Man(a1-2)Man(a1-3)[Man(a1-2)Man(a1-6)]Man
# Method in brief: as §1
# [17] = molecular target: Man(a1-2)Man(a1-3)[Man(a1-2)Man(a1-6)]Man(a1-6)[Man(a1-2)Man(a1-2)Man(a1-3)]Man
# Method in brief: as §1
# [18] = molecular target: Man(a1-2)Man(a1-3)[Man(a1-2)Man(a1-6)]Man(a1-6)[Man(a1-2)Man(a1-2)Man(a1-3)]Man(b1-4)GlcNAc(b1-4)GlcNAc
# Method in brief: as §1
# [19] = molecular target: Man(a1-2)Man(a1-3)[Man(a1-6)]Man(a1-6)[Man(a1-2)Man(a1-3)]Man(b1-4)GlcNAc(b1-4)GlcNAc
# Method in brief: as §1
# [20] = molecular target: Man(a1-2)Man(a1-6)[Man(a1-3)]Man(a1-6)[Man(a1-2)Man(a1-2)Man(a1-3)]Man
# Method in brief: as §1
# [21] = molecular target: Man(a1-2)Man(a1-6)[Man(a1-3)]Man(a1-6)[Man(a1-2)Man(a1-2)Man(a1-3)]Man(b1-4)GlcNAc(b1-4)GlcNAc
# Method in brief: as §1
# [22] = molecular target: Man(a1-3)[Man(a1-6)]Man
# Method in brief: as §1
# [23] = molecular target: Man(a1-3)[Man(a1-6)]Man(a1-6)[Man(a1-2)Man(a1-3)]Man(b1-4)GlcNAc(b1-4)GlcNAc
# Method in brief: as §1
# [24] = molecular target: Man(a1-3)[Man(a1-6)]Man(a1-6)[Man(a1-3)]Man
# Method in brief: as §1
# [25] = molecular target: Man(a1-3)[Man(a1-6)]Man(a1-6)[Man(a1-3)]Man(b1-4)GlcNAc(b1-4)GlcNAc
# Method in brief: as §1
# [26] = molecular target: Man(a1-3)[Man(a1-6)]Man(b1-4)GlcNAc(b1-4)GlcNAc
# Method in brief: as §1
# [27] = molecular target: Man(a1-6)Man
# Method in brief: as §1
# [28] = molecular target: Man(b1-4)GlcNAc
# Method in brief: as §1
# [29] = molecular target: Neu5Ac(a2-3)Gal
# Method in brief: as §1
# [30] = molecular target: Neu5Ac(a2-3)Gal(b1-3)GalNAc
# Method in brief: as §1
# [31] = molecular target: Neu5Ac(a2-3)Gal(b1-3)GalNAc(b1-3)Gal(a1-4)Gal(b1-4)Glc
# Method in brief: as §1
# [32] = molecular target: Neu5Ac(a2-3)Gal(b1-3)GalNAc(b1-3)Gal(b1-4)GlcNAc
# Method in brief: as §1
# [33] = molecular target: Neu5Ac(a2-3)Gal(b1-3)GalNAc(b1-4)[Neu5Ac(a2-3)]Gal(b1-4)Glc
# Method in brief: as §1
# [34] = molecular target: Neu5Ac(a2-3)Gal(b1-3)GalNAc6S
# Method in brief: as §1
# [35] = molecular target: Neu5Ac(a2-3)Gal(b1-3)GlcNAc
# Method in brief: as §1
# [36] = molecular target: Neu5Ac(a2-3)Gal(b1-3)GlcNAc(b1-3)Gal(b1-3)GlcNAc
# Method in brief: as §1
# [37] = molecular target: Neu5Ac(a2-3)Gal(b1-3)GlcNAc6S
# Method in brief: as §1
# [38] = molecular target: Neu5Ac(a2-3)Gal(b1-3)[Fuc(a1-4)]GlcNAc
# Method in brief: as §1
binder,measurement,setting,value
B1,glycan array binding signal (z-score),[1],-0.267
same,glycan array binding signal (z-score),[2],-0.318
same,glycan array binding signal (z-score),[3],-0.281
same,glycan array binding signal (z-score),[4],0.571
same,glycan array binding signal (z-score),[5],-0.228
same,glycan array binding signal (z-score),[6],-0.187
same,glycan array binding signal (z-score),[7],-0.006
same,glycan array binding signal (z-score),[8],0.135
same,glycan array binding signal (z-score),[9],-0.328
same,glycan array binding signal (z-score),[10],-0.238
same,glycan array binding signal (z-score),[11],-0.253
same,glycan array binding signal (z-score),[12],-0.194
same,glycan array binding signal (z-score),[13],1.75
same,glycan array binding signal (z-score),[14],-0.063
same,glycan array binding signal (z-score),[15],2.7
same,glycan array binding signal (z-score),[16],9.14
same,glycan array binding signal (z-score),[17],6.17
same,glycan array binding signal (z-score),[18],-0.269
same,glycan array binding signal (z-score),[19],9.15
same,glycan array binding signal (z-score),[20],2.79
same,glycan array binding signal (z-score),[21],1.43
same,glycan array binding signal (z-score),[22],-0.326
same,glycan array binding signal (z-score),[23],6.5
same,glycan array binding signal (z-score),[24],-0.352
same,glycan array binding signal (z-score),[25],-0.303
same,glycan array binding signal (z-score),[26],-0.219
same,glycan array binding signal (z-score),[27],-0.269
same,glycan array binding signal (z-score),[28],-0.233
same,glycan array binding signal (z-score),[29],-0.136
same,glycan array binding signal (z-score),[30],-0.311
same,glycan array binding signal (z-score),[31],-0.24
same,glycan array binding signal (z-score),[32],-0.019
same,glycan array binding signal (z-score),[33],-0.278
same,glycan array binding signal (z-score),[34],-0.158
same,glycan array binding signal (z-score),[35],-0.404
same,glycan array binding signal (z-score),[36],-0.026
same,glycan array binding signal (z-score),[37],-0.219
same,glycan array binding signal (z-score),[38],-0.198

# — the supplement of paper PMC8728848
